The other results are listed elsewhere or left out. Further columns of the screen follow, without active or inactive calls.
How the values were obtained:
Assay in all cases: Primary Screen for Target Class Profiling of Small Molecule Inhibitors of Methyltransferases
[1] = molecular target: Glycine N-methyltransferase (Homo sapiens) (UniProt Q14749); conditions: purified enzyme, MTase-Glo SAH luminescence; measured here: GNMT inhibition; at 40 µM; stronger effect = lower value
Procedure, shortened: (§1)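 Each enzyme was assayed with SAM and its substrate. SAH formation detected by MTase-Glo luminescence; single-point 40 uM screen[…].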

[2] = molecular target: Guanidinoacetate N-methyltransferase (Homo sapiens) (UniProt Q14353); conditions: purified enzyme, MTase-Glo SAH luminescence; measured here: GAMT inhibition; at 40 µM; stronger effect = lower value
Procedure, shortened: as §1

[3] = molecular target: Histamine N-methyltransferase (Homo sapiens) (UniProt P50135); conditions: purified enzyme, MTase-Glo SAH luminescence; measured here: HNMT inhibition; at 40 µM; stronger effect = lower value
Procedure, shortened: as §1

[4] = molecular target: Nicotinamide N-methyltransferase (Homo sapiens) (UniProt P40261); conditions: purified enzyme, MTase-Glo SAH luminescence; measured here: NNMT inhibition; at 40 µM; stronger effect = lower value
Procedure, shortened: as §1

[5] = molecular target: Phenylethanolamine N-methyltransferase (Homo sapiens) (UniProt P11086); conditions: purified enzyme, MTase-Glo SAH luminescence; measured here: PNMT inhibition; at 40 µM; stronger effect = lower value
Procedure, shortened: as §1
% is scaled to controls: 0 for no effect and ±100 for the full control effect.

| Structure (SMILES) | activity change, negative = inhibition [1] | activity change, negative = inhibition [2] | activity change, negative = inhibition [3] | activity change, negative = inhibition [4] | activity change, negative = inhibition [5] |
| --- | --- | --- | --- | --- | --- |
| CCc1ccccc1N1C(=O)Cn2cccc2C1C(=O)NC1CCCCC1C (stereo not given) | -3.56% | 0.063% | 0.576% | 9.34% | -1.05% |
| COc1ccc(OC)c2c1cc1n2CC(C)(C(=O)NC2CCCC2)N(Cc2ccccn2)C1=O (stereo not given) | -22.6% | 4.1% | 10.3% | -2.54% | -12.8% |
| Cc1c(N2C(=O)c3ccc(C(=O)O)cc3C2=O)c(=O)n(-c2ccccc2)n1C | -1.28% | 2.46% | 8.73% | -5.57% | 3.31% |
| CC[C@@]1(O)C(=O)OCc2c1cc1n(c2=O)Cc2cc3cc(O)ccc3nc2-1 | -3.29% | 6.43% | 10.2% | -10.6% | 3.14% |
| O=C(O)/C=C/c1ccc(O[C@@H]2O[C@H](CO)[C@@H](O)[C@H](O)[C@H]2O)cc1 | 0% | 5.23% | 8.56% | -4.49% | 5.37% |
| Cc1ccc(CN2C(=O)c3cc4sccc4n3CC2(C)C(=O)NC2CCCCC2)cc1 (stereo not given) | -12% | -0.375% | -5.56% | -6.04% | -4.63% |
| CN1C[C@@H](NS(=O)(=O)c2ccc(C#N)cc2)C[C@H]1c1nc(-c2ccc(Cl)cc2)no1 | -8.2% | -7.79% | -5.18% | -8.21% | 3.63% |
| CC(C)Cn1c(=O)c2ccc(Cl)cc2n2c(SCC(=O)Nc3ccccc3Cl)nnc12 | -2.44% | 0% | 5.94% | -9.21% | -12% |
| CCC(C)NC(=O)c1ccc2c(=O)n(C3CC3)c3nn(CC(=O)Nc4ccc(F)cc4)c(=O)n3c2c1 (stereo not given) | 7.68% | 0% | 13% | 3.07% | 8.18% |
| COc1cccc(Cn2nc3n(CCC(C)C)c(=O)c4ccc(C(=O)NC(C)C)cc4n3c2=O)c1 | -2.8% | -7.75% | 8.15% | -4.56% | -4.78% |
| NC(=O)[C@H](CC1CCCCC1)NC(=O)[C@@H]1CN(C(=O)Nc2ccccc2)CCN1C(=O)C1CCCCC1 | -1.66% | -6.14% | -1.46% | -1.75% | -7.85% |
| Cc1cccc(NC(=O)N2CCn3cccc3C2C)c1C (stereo not given) | -0.108% | 0% | 0.292% | -9.66% | 0.052% |
| Cc1ccc2c(c1)c1c3n2CCN(CC(O)CN2CCN(C(=O)c4ccco4)CC2)C3CCC1 (stereo not given) | -4.88% | 0% | -3.68% | 10.4% | -6% |
| Cc1ccc(Cn2c(=O)c3ccccc3n3c(CCC(=O)N4CCN(c5cc(C)ccc5C)CC4)nnc23)cc1 | 5.43% | 0% | 10.2% | -2.22% | -4.08% |
| C[C@H](O)c1c(-c2ccc(F)cc2)noc1C(=O)N1CCCC1 | -1.39% | -0.387% | 1.52% | -34.1% | -2.88% |
| Cc1cccc(-c2[nH]c(C(C)(C)C)nc2-c2ccc3nccnc3c2)n1 | -7.15% | 0.248% | -1.93% | -11.9% | 2.68% |
| Cc1ccc(Nc2nc3c(S(=O)(=O)c4ccccc4)nnn3c3ccccc23)cc1 | 1.59% | 0.679% | 1.42% | 1.63% | -0.536% |
| COc1ccccc1CNC(=O)C1(C)Cn2c(cc3ccccc32)C(=O)N1Cc1ccc(F)cc1 (stereo not given) | -2.98% | 1.5% | -3.82% | -10.3% | -5.23% |
| CC1CCN([C@@H]2[C@H](O)[C@H](CO)O[C@@H]2CNC(=O)c2ccc(F)c(Cl)c2)CC1 | -1.43% | 0.607% | -1.33% | -4.25% | 1.08% |

| Structure (SMILES) | activity change, negative = inhibition [1] | activity change, negative = inhibition [2] | activity change, negative = inhibition [3] | activity change, negative = inhibition [4] | activity change, negative = inhibition [5] |
| --- | --- | --- | --- | --- | --- |
| CCN1CCN(Cc2ccc(NC(=O)c3ccc(C)c(Oc4ncnc5[nH]c(C)cc45)c3)cc2C(F)(F)F)CC1 | -11.1% | 2.16% | -34.2% | -24.5% | -3.14% |
| Cc1cc(C(=O)N2CCCC[C@H](N(C)C)C2)c(-c2ccccc2)o1 | 0.053% | 2.52% | -2.27% | -6.84% | 5.44% |
| O=C(CSc1nnc2n(Cc3ccccc3)c(=O)c3ccccc3n12)Nc1cccc(F)c1 | -10.5% | 0.778% | -1.23% | -12.4% | -6.17% |
| CSc1ccc(CCNC(=O)Cn2ccc3cc(S(=O)(=O)N4CCCC4)ccc32)cc1 | 0.503% | 3.72% | 0.602% | -5.64% | -0.503% |
| Cc1ccccc1/C=C/C1=NCCN1 | -16.9% | 5.99% | -9.21% | -7.47% | 1.32% |
| CS(=O)(=O)c1cnc(NCCn2ccnc2)nc1C1CCCNC1 (stereo not given) | -5.77% | -2.75% | -3.92% | -8.76% | -9.17% |
| Cc1ccc(C)c(CN2CC(=O)N(Cc3ccc(Cl)cc3)c3ccccc3S2(=O)=O)c1 | 15.1% | 2.72% | 12.1% | 6.58% | 9.79% |
| CC(C)c1cc(C(=O)N2CCn3nc(C(=O)Nc4ccccc4)cc3C2)n[nH]1 | -7.27% | -8.16% | -3.99% | -8.51% | -18.3% |
| COc1ccc(NC(=O)CCc2nnc3n(Cc4ccc(Cl)cc4)c(=O)c4ccccc4n23)cc1OC | -5.26% | 0.602% | -1.89% | -1.25% | -6.78% |
| Cc1cc(N2C(=O)Cn3cccc3C2C(=O)NC2CCC(C)CC2)ccc1Br (stereo not given) | -3.63% | 7.11% | 0.014% | -1.26% | -2.92% |
| CNC(=O)COC(=O)N1CCC(CCc2ccc(Cl)cc2)CC1 | -6.08% | -2.5% | 1.01% | -15.5% | -3.58% |
| CCOc1ccc(CCNC(=O)Cn2ccc3cc(S(=O)(=O)N4CCCCC4)ccc32)cc1 | -3.32% | 0.826% | -7.63% | -9.97% | -8.02% |
| Cc1nc(-c2c3n(c(=O)n(CC(=O)NCc4cccs4)c2=O)CCCCC3)no1 | -2.91% | 0.933% | 1.14% | -1.65% | 11.8% |
| Cc1ccc(CSc2nnc3n(C)c(=O)c4ccc(C(=O)NC5CCCCC5)cc4n23)cc1 | 2.24% | 3.58% | 5.55% | 0.819% | 7.79% |
| CCC[C@H](N)C(=O)N1CCC2(CCC(=O)N(Cc3cnc(C)cn3)C2)CC1 | -2.92% | -2.78% | -2.04% | -7.13% | -3.24% |
| O=c1nc2c(-c3ccccc3Cl)n[nH]n2c2ccc(Cl)cc12 | -16.5% | 1.25% | 6.33% | -1.61% | -1.26% |
| Cc1cccc(Cn2nc3n(C(C)C)c(=O)c4ccc(C(=O)NC5CCCCC5)cc4n3c2=O)c1 | 6.27% | 0% | 7.26% | 7.08% | 6.44% |
| CC(C)OCCCn1c(=O)c2ccccc2n2c(CCC(=O)Nc3ccc(F)cc3)nnc12 | -8.61% | 5.95% | 2.54% | 2.53% | -5.59% |
| CC(C)Cn1c(=O)c2ccccc2n2c(=O)n(Cc3c(F)cccc3Cl)nc12 | 2.85% | 0% | 5.46% | -8.55% | 1.51% |

— PubChem BioAssay AID1745853 (National Center for Advancing Translational Sciences (NCATS), 2022)
